Here are results for 94 compounds from PubChem BioAssay AID485344 (National Center for Advancing Translational Sciences (NCATS), 2010).

The campaign covered roughly 340,000 compounds. About 6,900 (2%) were called active. Rule as the data show it: active = inhibition above about 30%; inactive = below that, where a call was filed. The entries are a selection whose mix differs from that of the whole data set. Entries without a call were filed so in the source.

The test deals with D(2) dopamine receptor (Homo sapiens) (UniProt P14416). The test is described as follows: HTS Assay for Allosteric Antagonists of the Human D2 Dopamine Receptor: Primary Screen for Antagonists. Also: 0% is about no effect. Conditions: HEK293 TREx D2 cells, calcium flux, dopamine EC80; at 10 µM; stronger effect = higher value. The gist of the method: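 Measurement of antagonist activity uses fluorescent calcium dye in inducible HEK293 T-REx D2 cells: 10 s baseline, compound addition with 180 s read, EC80 dopamine addition with a further 180 s read.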
Sequence of UniProt P14416 (P14416 whole entry, looked up): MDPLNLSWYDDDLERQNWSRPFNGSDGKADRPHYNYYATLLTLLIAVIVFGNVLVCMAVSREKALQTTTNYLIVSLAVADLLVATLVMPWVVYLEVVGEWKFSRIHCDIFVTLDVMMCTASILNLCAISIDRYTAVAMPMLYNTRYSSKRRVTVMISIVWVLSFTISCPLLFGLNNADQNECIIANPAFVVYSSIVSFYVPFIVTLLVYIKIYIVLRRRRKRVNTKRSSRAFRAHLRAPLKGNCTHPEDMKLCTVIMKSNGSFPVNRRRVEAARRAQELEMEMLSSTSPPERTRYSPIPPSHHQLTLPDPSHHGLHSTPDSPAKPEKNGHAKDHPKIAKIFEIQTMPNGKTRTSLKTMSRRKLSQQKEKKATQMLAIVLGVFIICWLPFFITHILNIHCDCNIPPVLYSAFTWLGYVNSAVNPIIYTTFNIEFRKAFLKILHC
Turning to `Cc1ccc(C(=O)n2nc(C)c(S(=O)(=O)N3CCOCC3)c2C)cc1C`, the inhibition amounted to 8.33%.
For `Cc1ccc(NC(=O)c2nnn(CC(=O)Nc3ccc(C)c(Cl)c3)c2N)c(C)c1` the value was 8.68%; for `COc1ccc(CNC(=O)c2cc3c(=O)n(C)c4ccccc4c3n2C)c(OC)c1`, 4.88%; for `Cc1cc(C)c2oc(-c3ccc(C)c(NC(=O)/C=C/c4ccco4)c3)nc2c1`, 9.82%.
`Cc1nc(N2CCCC2)ncc1C(=O)N1CCN(c2ccccc2F)CC1`: the inhibition was -14.8%.
Turning to `CC(C)C(=O)Nc1cccc(NC(=O)c2ccc([N+](=O)[O-])cc2Cl)c1`, the inhibition was active: 39.3%.
As to `COc1ccc(Cn2c(CO)cnc2SCc2cccc(C)c2)cc1`, the inhibition is -3.87%.
For `CCN(CC(=O)Nc1c(F)cccc1F)C(=O)/C=C/c1cn(Cc2ccccc2)nc1-c1cccnc1`, the inhibition was active: 32.3%.
Take `COc1ccccc1N1CCN(C(=O)CCS(=O)(=O)c2cc(Br)cc3c2N(C(C)=O)CC3)CC1`: the inhibition is -16.5%.
For the compound `C=CC[C@H]1Cc2c(cccc2[N+](=O)[O-])[C@H](CC=C)N1`, the inhibition is active: 58.9%.
Consider `Cc1cccc(N(CC(N)=O)C2SC(=O)N(Cc3cccc(C(=O)O)c3)C2=O)c1` (centres undefined), for which the inhibition was -0.261%.
On to `CC(Cc1ccco1)NC(=O)c1ccc(C(F)(F)F)cc1` (centres undefined), for which the inhibition is active: 32.2%.
Take `Cc1c(-c2nnc(SCC(=O)Nc3ccc(Cl)cc3)o2)nnn1-c1ccc(F)cc1`: the inhibition was -13.8%.
In the case of `Cc1cc(Br)cc2c(C(=O)OCC(=O)c3ccccc3)cc(-c3ccccc3)nc12`, the inhibition turned out to be 2.83%.
For `CCOC(=O)C1CCCN(Cc2ccc(OCc3ccccc3)cc2)C1` (centres undefined) the value was active: 86.1%.
To `COc1ccccc1N1CCN(C(=O)c2cnc(N3CCOCC3)c3ccccc23)CC1` belongs 12.7%.
In the case of `CCN1CCSc2ccc(C(=O)NCc3ccccc3Br)cc21`, the inhibition stood at 7.26%.
With `O=c1[nH]c(SCc2cccc(Cl)c2)nc2c1CCC2`, the inhibition was 15.4%.
As for `COC(=O)c1ccc([C@H]2Nc3ccc(S(=O)(=O)Nc4cccc(C)c4)cc3[C@H]3C=CC[C@H]32)cc1`, the inhibition was 16.8%.
In the case of `COCCNC(=O)CCCn1c(SCc2ccccc2Cl)nc2c(sc3ccccc32)c1=O`, the inhibition is 14.5%.
Consider `CCCCOc1ccc(C(=O)N(Cc2ccco2)Cc2ccco2)cc1`, for which the inhibition turned out to be 7.81%.
In the case of `COc1ccccc1C1CC(=O)N(c2cccc(C(F)(F)F)c2)C2=C1C(=O)OC2` (centres undefined), the inhibition was -0.62%.
`COC(=O)c1c(-c2ccccc2)c(-c2ccccc2)nn(C)c1=O`: the inhibition was -2.29%.
`COc1ccc(-n2c(=O)c3c(c4cc(OC)ccc4n3C)n(CCC(C)C)c2=O)cc1`: the inhibition was -3.04%.
To `COc1ccc(-n2c(=O)c3sc4ccccc4c3n(CC(=O)NC3CCCCC3)c2=O)cc1` belongs -9.18%; to `CCOC(=O)C1CCCN(CC(O)COC(c2ccccc2)c2ccccc2)C1` (centres undefined), active: 33.4%.
To `CC(C)c1ccc(N2C(=O)N(Cc3ccccc3Cl)c3ccccc3S2(=O)=O)cc1` belongs 6.31%.
In the case of `COc1ccc(OC)c(NC(=O)CNC(c2ccccc2)c2ccccc2)c1`, the inhibition is active: 31.3%.
With `CC1CCN(CCOc2ccccc2-c2ccccc2)CC1`, the inhibition was active: 75%.
On to `Cn1c(=O)[nH]c(=O)c2c1nc(N1CCOCC1)n2CCSc1nnnn1-c1ccccc1`, for which the inhibition was active: 36.6%.
For `O=C(Nc1cc(C(F)(F)F)ccc1Cl)c1cnn(-c2ccccc2)c1-n1cccc1` the value was -12.7%; for `CCOc1ccc(CCNC(=O)c2cnc3sc(N4CCCCC4)nn3c2=O)cc1`, -2.64%.
For `COC(=O)Cc1c(C)nc2nc(-c3ccc(C)cc3)[nH]n2c1=O`, the inhibition was -13.6%.
To `CCOc1cccc2sc(NC(=O)CS(=O)(=O)c3ccc(C)cc3)nc12` belongs 6.81%; to `CCN(Cc1ccccc1)S(=O)(=O)c1ccc(F)c(C(=O)Nc2cc(C(F)(F)F)ccc2Cl)c1`, 26.8%; to `COc1ccc(N2C(=O)CSC23C(=O)N(CC(N)=O)c2ccccc23)cc1` (centres undefined), 2.98%.
As to `COc1cc(OC)c(NC(=O)N2CCCn3nc(C)cc32)cc1Cl`, the inhibition was -1.66%.
On to `COc1ccc(C(=O)Nc2ccc3c(c2)CCCN3C(=O)c2cccs2)c(OC)c1`, for which the inhibition is -16.6%.
For the compound `CCOc1ccc(Nc2nnc(-n3nc(C)cc3C)c3ccccc23)cc1`, the inhibition was 2.74%.
On to `Cc1cccc(-n2ccnc2SCC(=O)Nc2cccc3ccccc23)c1C`, for which the inhibition came to 8.39%.
For `COc1ccc(-c2nnc(SCC(=O)NC3CCCCC3)nc2-c2ccc(OC)cc2)cc1` the value was -8.36%; for `O=C(Cn1c(=O)n(Cc2ccc3c(c2)OCO3)c(=O)c2oc3ccccc3c21)Nc1ccccc1F`, -16.8%.
As for `O=C(CSc1nc(O)c(C2CCCCC2)c(=O)[nH]1)N1CCOCC1`, the inhibition is active: 42.7%.
`CCN(C(=O)Cn1cnc2onc(-c3ccc(F)cc3)c2c1=O)c1ccc(OC)cc1`: the inhibition is -5.93%.
To `CCOc1ccc(NC(=O)Cn2c(=O)c(CNc3ccc(CC)cc3)cc3cc4c(cc32)OCO4)cc1` belongs -1.99%.
As to `Cc1oc2ncn(CC(C)C)c(=O)c2c1C(=O)NC(C)c1ccccc1` (centres undefined), the inhibition is -0.77%.
On to `Cc1cc(C)c2nc(NC(=O)c3ccc(S(=O)(=O)N4CCc5ccccc54)cc3)sc2c1`, for which the inhibition is 9.21%.
Take `CCCS(=O)(=O)N1CC(=O)N(c2ccc(C)cc2)C(C)(C(=O)NC2CCCCCC2)C1` (centres undefined): the inhibition came out at 13.5%.
For the compound `COc1ccc(CCNC(=O)c2cc3sccc3n2Cc2ccc(Cl)cc2)cc1OC`, the inhibition was -18.4%.
Turning to `CCOc1ccccc1CN1CCc2nc(Nc3ccc4c(c3)OCCO4)ncc2C1`, the inhibition worked out at 5.75%.
With `O=C(CSc1nc(Nc2ccc(F)cc2)c2ccccc2n1)c1ccc(F)cc1`, the inhibition turned out to be 9.47%.
For `Cc1cccc(-n2c(C)nc3cc(C(=O)NCCC4=CCCCC4)ccc32)c1` the value was 4.98%.
On to `O=C(NCc1nc2ccccc2[nH]1)c1c(F)cccc1F`, for which the inhibition was 15.2%.
On to `COc1ccc(NC(=O)CCNS(=O)(=O)c2cccc3nsnc23)cc1Cl`, for which the inhibition is 10.2%.
For `CCn1c(=O)cc(OCC(=O)N2CCN(c3ccc(OC)cc3)CC2)c2ccccc21`, the inhibition amounted to 16.6%.
`COc1cccc(OC)c1C(=O)Nc1nc2c(s1)CCc1ccccc1-2`: the inhibition was 13.4%.
As to `Cc1ccc(NC(=O)Nc2sc3nc4n(c(=O)c3c2C)CCC(C)CC4)c(Cl)c1` (centres undefined), the inhibition turned out to be 13.4%.
Turning to `Cc1cccc(NC(=O)c2ccc3c(c2)CCN3S(=O)(=O)c2ccccc2)c1C`, the inhibition was -1.94%.
For `O=C(c1cc2ccccc2o1)N1CC=C(c2ccccc2)CC1`, the inhibition was active: 46.1%.
With `COC(=O)c1ccc(NC(=O)N2CCN(Cc3cc(=O)n4nc(-c5ccc(C)cc5)sc4n3)CC2)cc1`, the inhibition was -5.84%.
As for `COc1ccc(-c2noc(-c3ccc(N4CCN(c5ccccc5)CC4)c([N+](=O)[O-])c3)n2)cc1`, the inhibition was determined as 17.4%.
For the compound `CC(CNC(=O)CN1C(=O)c2cccnc2Oc2ccc(Cl)cc21)c1ccccc1` (centres undefined), the inhibition was found to be 7.28%.
Consider `COc1cccc(OC)c1C(=O)OCC(=O)NC1CCCCCC1`, for which the inhibition is active: 81.9%.
Take `COc1ccc2cc3cc(C(=O)N4CCN(c5ccccc5F)CC4)oc3nc2c1`: the inhibition is 1.18%.
For the compound `CCCOc1ccc(C2CC(=O)Nc3c2c(C)nn3-c2nncc(-c3cccc(OC)c3)n2)cc1OC` (centres undefined), the inhibition was 0.404%.
With `COc1cccc(C2=CC(c3cc(Br)ccc3F)n3nnnc3N2)c1` (centres undefined), the inhibition was -18.3%.
Consider `Cc1cccc(N2C(=O)CSC23C(=O)N(CC(=O)NCc2ccccc2Cl)c2ccccc23)c1` (centres undefined), for which the inhibition was found to be 0.92%.
In the case of `COc1ccc(CCNC(=O)C(=O)NCC(c2ccco2)S(=O)(=O)c2ccccc2)cc1` (centres undefined), the inhibition was -12%.
Consider `Cc1ccc(OCC(O)CN2CCN(c3ccc(C)cc3)CC2)cc1` (centres undefined), for which the inhibition was active: 53.2%.
As for `O=C(Cn1c(SCCOc2ccc(Cl)cc2)nc2ccccc21)N1CCCCC1`, the inhibition is 13.1%.
Take `COc1ccc(-c2nnc3n2N(C(C)=O)C(c2ccc(Cl)c(Cl)c2)=C(C(C)=O)S3)cc1`: the inhibition is -4.34%.
As for `COc1ccc(N2CC(C(=O)NCc3nnnn3-c3ccc(C)c(C)c3)CC2=O)cc1` (centres undefined), the inhibition came to 5.22%.
Consider `Cc1ccccc1C(=O)Nc1c(C)nc(Nc2ccccc2)nc1Nc1ccccc1`, for which the inhibition was 9.91%.
To `CCOCCCNC(=O)C(c1ccc(OC)cc1)N(Cc1ccc2c(c1)OCO2)C(=O)c1ccccc1O` (centres undefined) belongs -24.9%.
`CC(=O)N1c2ccc(S(=O)(=O)NCC3CCC(C(=O)Nc4cccc(C)c4C)CC3)cc2CC1C` (centres undefined): the inhibition is 19.1%.
To `Cc1ccc(NC(=O)Cn2nc(C)n3cccc3c2=O)c(C)c1` belongs -6.5%; to `Cc1cccc(N2CCN(C(=O)c3cc4c(=O)n(C)c5ccccc5c4s3)CC2C)c1` (centres undefined), -7.81%; to `CCCN(CCC)CCNC(=O)c1ccc2c(c1)NC(=O)C(CS(=O)(=O)Cc1cccc(Br)c1)N2` (centres undefined), -4%.
In the case of `O=C(NC1CCN(Cc2ccc(F)cc2)CC1)c1ccccc1`, the inhibition is active: 115%.
Take `COc1ccccc1N1CCN(S(=O)(=O)CCNC(=O)COc2ccc(C(C)C)cc2)CC1`: the inhibition is -7.93%.
Turning to `Cc1sc2ncn(CC(=O)N3CCN(c4cccc(Cl)c4)CC3)c(=O)c2c1S(=O)(=O)N1CCN(c2ncccn2)CC1`, the inhibition was 3.45%.
As to `COc1ccc(NC(=O)c2ccc3c(SCC(=O)O)c4c(nc3c2)CCC4)c(OC)c1`, the inhibition turned out to be 3.52%.
Consider `N#Cc1ccc(NC(=O)COC(=O)CSc2nnc(-c3ccc(Cl)cc3)o2)cc1`, for which the inhibition is active: 31.3%.
`CCOc1ccccc1N1CC(c2nc3ccccc3n2Cc2c(C)cc(C)cc2C)CC1=O` (centres undefined): the inhibition stood at 2.97%.
As for `COc1ccc(-c2nc(SCc3cc(=O)c4cc(C)ccc4[nH]3)n[nH]2)cc1`, the inhibition was 4.5%.
Take `COc1ccc(-c2nc(C)c(CCNC(=O)C(=O)Nc3cc(C)cc(C)c3)s2)cc1OC`: the inhibition is 8.04%.
For the compound `COc1cccc(-n2c(=O)c3c(C)c(C)sc3n(CC(=O)NCc3ccccc3)c2=O)c1`, the inhibition was 1.53%.
For `COc1ccc(-c2nsc(NC(=O)C(C)Oc3ccc(Cl)c(C)c3)n2)cc1` (centres undefined) the value was 12.4%; for `COc1ccccc1NC(=O)C1=C(C)Nc2nnnn2C1c1cc(Br)c(O)c(OC)c1` (centres undefined), -6.64%; for `O=S(=O)(c1ccc(OCC(O)CN2CCN(c3ccc(F)cc3)CC2)cc1)N1CCOCC1` (centres undefined), active: 66.8%.
In the case of `Cc1ccc(C)c(Cn2c(=O)cc(C)c3c(C)nn(-c4cccc(F)c4)c32)c1`, the inhibition is -14.5%.
For `COc1ccc(NC(=O)c2cnc(Nc3ccc(C)c(Cl)c3)c3ccccc23)cc1OC`, the inhibition stood at 10.9%.
In the case of `COc1ccc(/C=C/c2nc(C#N)c(NCCc3ccccc3)o2)cc1OC`, the inhibition came to 16.9%.
For `COc1ccc(Nc2nc3c(S(=O)(=O)c4ccccc4)nnn3c3ccsc23)cc1OC`, the inhibition came to 10.2%.
